Data reported in PMC7904728.
These are yes or no findings as the source states them, for the method shown. For some of these results: In cells and extracts the contact can be indirect. Some entries that bind do so weakly or less than the wild type.

Chains of the proteins cited; added tags and fusions are not shown. Lines headed by an entry give the natural chain unless they say otherwise; changes in a name come on top. A line that says so, or that is headed by a name, gives the form on record, which may keep a tag or linker. Residues count along the entry.
UniProt P35637: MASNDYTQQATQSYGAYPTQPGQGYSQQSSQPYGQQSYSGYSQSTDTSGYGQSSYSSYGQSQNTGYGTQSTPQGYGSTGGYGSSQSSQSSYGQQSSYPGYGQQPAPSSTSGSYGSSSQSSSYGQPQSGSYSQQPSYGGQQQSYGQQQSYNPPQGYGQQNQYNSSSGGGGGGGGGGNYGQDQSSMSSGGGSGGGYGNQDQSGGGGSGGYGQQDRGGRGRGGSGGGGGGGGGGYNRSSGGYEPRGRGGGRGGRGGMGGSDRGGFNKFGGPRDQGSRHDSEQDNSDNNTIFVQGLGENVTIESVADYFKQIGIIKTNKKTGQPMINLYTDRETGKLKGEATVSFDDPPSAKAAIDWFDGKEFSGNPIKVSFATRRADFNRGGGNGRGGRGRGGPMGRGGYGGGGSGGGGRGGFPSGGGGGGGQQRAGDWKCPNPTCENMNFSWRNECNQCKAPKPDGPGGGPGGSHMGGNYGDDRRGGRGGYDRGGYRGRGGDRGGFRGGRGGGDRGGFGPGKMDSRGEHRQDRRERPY
UniProt Q13283: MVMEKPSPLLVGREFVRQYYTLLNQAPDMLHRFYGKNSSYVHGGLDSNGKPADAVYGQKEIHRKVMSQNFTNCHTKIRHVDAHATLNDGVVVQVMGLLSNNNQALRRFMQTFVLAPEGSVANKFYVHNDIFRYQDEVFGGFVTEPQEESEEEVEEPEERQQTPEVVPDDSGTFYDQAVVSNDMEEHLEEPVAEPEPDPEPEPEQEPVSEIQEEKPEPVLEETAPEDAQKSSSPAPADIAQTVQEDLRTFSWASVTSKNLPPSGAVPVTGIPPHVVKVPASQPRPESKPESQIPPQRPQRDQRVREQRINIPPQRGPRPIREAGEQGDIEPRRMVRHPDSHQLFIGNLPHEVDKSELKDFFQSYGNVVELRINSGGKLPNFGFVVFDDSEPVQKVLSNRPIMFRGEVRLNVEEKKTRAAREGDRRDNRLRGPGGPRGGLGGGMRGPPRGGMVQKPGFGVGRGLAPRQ
UniProt Q13148: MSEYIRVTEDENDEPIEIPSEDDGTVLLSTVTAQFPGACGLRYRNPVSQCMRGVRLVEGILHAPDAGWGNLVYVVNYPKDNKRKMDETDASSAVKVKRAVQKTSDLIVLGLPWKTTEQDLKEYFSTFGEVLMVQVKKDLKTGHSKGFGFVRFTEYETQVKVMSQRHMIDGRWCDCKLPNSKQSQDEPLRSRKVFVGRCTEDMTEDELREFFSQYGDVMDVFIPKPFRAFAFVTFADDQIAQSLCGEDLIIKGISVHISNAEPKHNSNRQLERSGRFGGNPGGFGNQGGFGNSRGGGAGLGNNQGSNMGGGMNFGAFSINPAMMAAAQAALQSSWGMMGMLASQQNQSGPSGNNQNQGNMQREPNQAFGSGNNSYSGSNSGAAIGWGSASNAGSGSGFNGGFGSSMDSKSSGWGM
UniProt P67809: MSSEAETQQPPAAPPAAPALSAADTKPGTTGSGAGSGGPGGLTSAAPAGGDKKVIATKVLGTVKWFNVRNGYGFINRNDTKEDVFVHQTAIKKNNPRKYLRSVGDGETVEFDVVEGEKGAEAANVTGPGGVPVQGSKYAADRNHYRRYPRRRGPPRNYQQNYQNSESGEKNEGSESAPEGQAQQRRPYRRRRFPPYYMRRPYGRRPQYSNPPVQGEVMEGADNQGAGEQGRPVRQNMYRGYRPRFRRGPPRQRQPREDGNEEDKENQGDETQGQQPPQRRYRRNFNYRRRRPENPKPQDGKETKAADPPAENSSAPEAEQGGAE
UniProt Q15811: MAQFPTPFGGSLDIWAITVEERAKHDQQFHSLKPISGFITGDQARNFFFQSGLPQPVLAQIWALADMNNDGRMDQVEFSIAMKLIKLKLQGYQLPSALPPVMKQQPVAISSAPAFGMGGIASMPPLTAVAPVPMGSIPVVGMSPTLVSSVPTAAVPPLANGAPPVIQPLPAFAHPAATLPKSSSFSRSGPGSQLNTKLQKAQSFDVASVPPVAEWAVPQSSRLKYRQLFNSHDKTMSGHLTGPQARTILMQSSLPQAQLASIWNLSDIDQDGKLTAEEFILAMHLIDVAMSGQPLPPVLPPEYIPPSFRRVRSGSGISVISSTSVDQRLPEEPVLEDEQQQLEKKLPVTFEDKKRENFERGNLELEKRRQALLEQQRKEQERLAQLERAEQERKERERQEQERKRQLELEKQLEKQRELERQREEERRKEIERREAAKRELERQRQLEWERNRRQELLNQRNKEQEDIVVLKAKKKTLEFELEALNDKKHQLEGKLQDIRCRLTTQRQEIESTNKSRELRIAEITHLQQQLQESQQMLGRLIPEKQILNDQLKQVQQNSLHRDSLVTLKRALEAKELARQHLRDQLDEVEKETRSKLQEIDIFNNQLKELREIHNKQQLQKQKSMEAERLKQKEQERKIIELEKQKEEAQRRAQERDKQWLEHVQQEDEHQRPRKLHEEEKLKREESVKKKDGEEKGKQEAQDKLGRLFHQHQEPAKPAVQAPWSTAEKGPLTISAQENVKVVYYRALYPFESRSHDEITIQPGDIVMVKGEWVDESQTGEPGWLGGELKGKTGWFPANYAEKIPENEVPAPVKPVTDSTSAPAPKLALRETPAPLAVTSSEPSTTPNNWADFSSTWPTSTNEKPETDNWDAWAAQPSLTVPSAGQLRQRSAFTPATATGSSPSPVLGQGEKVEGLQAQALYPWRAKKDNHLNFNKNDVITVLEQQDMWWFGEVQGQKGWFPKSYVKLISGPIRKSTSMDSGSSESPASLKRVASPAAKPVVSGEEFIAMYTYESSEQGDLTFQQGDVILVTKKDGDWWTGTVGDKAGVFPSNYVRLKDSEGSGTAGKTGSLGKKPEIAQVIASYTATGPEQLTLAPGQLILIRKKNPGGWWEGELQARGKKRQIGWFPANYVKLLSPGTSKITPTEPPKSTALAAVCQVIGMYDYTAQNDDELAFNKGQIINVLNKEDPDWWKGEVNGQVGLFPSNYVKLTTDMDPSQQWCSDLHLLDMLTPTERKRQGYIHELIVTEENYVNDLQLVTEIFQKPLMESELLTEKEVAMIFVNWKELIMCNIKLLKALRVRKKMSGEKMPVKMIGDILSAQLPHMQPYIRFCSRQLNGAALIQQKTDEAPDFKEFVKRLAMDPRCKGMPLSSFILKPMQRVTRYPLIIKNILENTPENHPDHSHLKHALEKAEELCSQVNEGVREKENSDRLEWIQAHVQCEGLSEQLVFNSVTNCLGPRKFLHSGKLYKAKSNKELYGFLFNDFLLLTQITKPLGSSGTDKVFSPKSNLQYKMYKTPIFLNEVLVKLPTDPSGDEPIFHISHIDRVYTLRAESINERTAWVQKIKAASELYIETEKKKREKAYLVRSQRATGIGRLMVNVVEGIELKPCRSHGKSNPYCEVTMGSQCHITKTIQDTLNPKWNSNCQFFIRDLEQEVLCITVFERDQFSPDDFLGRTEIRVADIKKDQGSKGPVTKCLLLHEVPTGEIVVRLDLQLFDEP
full-length ITSN1s fused to GFP: residues 1-1220 of Q15811
GFP-fused ITSN1_(CCR-SH3): residues 310-1220 of Q15811
GST-ITSN1SH3: residues 730-1220 of Q15811

Key:
[1] = molecular target: FUS used as bait in the microtubule bench (UniProt P35637); test: microtubule bench assay; HeLa cells co-transfected; bait fused to RFP and the microtubule-binding domain of Tau (MBD) and so held on microtubules, prey fused to GFP; fixed 24 h post transfection; Pearson correlation coefficient of red and green fluorescence along lines crossing microtubules, at least twenty lines from three experiments
[2] = molecular target: G3BP1 used as bait in the microtubule bench (UniProt Q13283); test: as above
[3] = molecular target: SAM68-RFP-MBD (UniProt Q07666); test: as above
[4] = molecular target: TDP43-RFP-MBD (UniProt Q13148); test: as above
[5] = molecular target: YB1 used as bait in the microtubule bench (UniProt P67809); test: as above
[6] = molecular target: endogenous SAM68 (HeLa cells) (human (endogenous in HeLa)) (UniProt Q07666); test: proximity ligation; Duolink PLA on fixed, permeabilised HeLa cells with anti-ITSN1 and anti-SAM68 antibodies; endogenous proteins
[7] = molecular target: TDP43-His (human) (UniProt Q13148); test: pull-down; 1 µg SAM68-His or TDP43-His immobilised on Ni-NTA-agarose in 8 M urea, washed without urea, incubated with 1 µg GST-SRCSH3, GST-ITSN1SH3 or GST in 25 mM Tris-HCl pH 7.4, 150 mM NaCl, 10% glycerol, 1% Triton-X100 at 4 °C for 1 h; Coomassie staining; both purified

binding [3]	binding [4]	Substance	other results
binds	no binding	GFP-fused ITSN1SH3 (from UniProt Q15811-2 730-1220) (domain or fragment)	binding [1]: no binding; binding [2]: no binding; binding [5]: no binding
binds	no binding	full-length ITSN1s fused to GFP (from UniProt Q15811-2 1-1220)	–
–	–	endogenous ITSN1 (HeLa cells) (from UniProt Q15811 1-1721)	binding [6]: binds
–	–	GST-ITSN1SH3 (from UniProt Q15811-2 730-1220) (domain or fragment)	binding [7]: no binding (tested: 1 µg)
binds	–	GFP-fused ITSN1_(CCR-SH3) (from UniProt Q15811-2 310-1220) (domain or fragment)	–
